In PubChem BioAssay AID1345082 (National Center for Advancing Translational Sciences (NCATS), 2018):
Out of some 94,000 compounds screened, about 4,000 (4.3%) were called active. The shares of active, inactive and inconclusive entries below differ from those in the screen. Calls come from the whole dose curve; as a rule, active = well fitted inhibition curve with a large enough effect; inconclusive = small, poorly fitted or top-dose-only effect; inactive = no such curve, though single readings can be large or run the other way. Potencies of inconclusive entries are doubtful fits and often do not repeat.

Test: Cytotoxic Profiling in NIH 3T3 Cell Line of Diverse Libraries Using Quantitative High-Throughput Screening; note: nearly all actives have a fitted effect of over 55% in size
Conditions: NIH 3T3 viability, CellTiter-Glo ATP luminescence, 48-72 h; series mostly up to 96.7 µM
Outline: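 NIH 3T3 cells at 400 cells/well received 23 nL of compound by pintool and were incubated 48 or 72 h at 37 °C. Viability was read as ATP-coupled CellTiter-Glo luminescence.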
Potency is the fitted concentration of half-maximal effect; tags give direction and shape of the fitted curve.

Compound | Potency
O=C(Nc1ccc(F)cc1)Nc1cccc(-c2ccc(N3CCOCC3)nn2)c1 | inconclusive: 44.7 µM [inhibitor, partial curve]
COc1ccc(F)cc1-c1ccc(CN2CCCCC2C(=O)NCCc2ccccn2)cc1 (stereo not drawn) | inconclusive: 50.1 µM [inhibitor, partial curve, poor fit]
CNC(=O)c1cc(C2CC2)nc2onc(C3CCN(C(=O)Cc4ccc(OC)cc4)C3)c12 (stereo not drawn) | inactive
Cn1ccc2c(C(=O)NCc3cccnc3)nc(-c3cccc(O)c3)cc21 | inconclusive: 22.4 µM [inhibitor, full curve, poor fit]
COc1cccc(C(=O)N2CCC(C(NC(=O)c3ccccc3)C(=O)NCc3ccco3)CC2)c1 (stereo not drawn) | inconclusive: 79.4 µM [inhibitor, partial curve, poor fit]
COc1ccc(-c2ccccc2C(=O)NCC(F)F)nn1 | inactive
C[C@@]12CO[C@@H](CNC(=O)C3CCCC3)O[C@@H]1CC[C@]1(C)[C@@H]2CC[C@@H](O)[C@H]1CC(=O)NCc1ccccc1 | inactive
Cc1ccc(-c2nnc3ccc(NCc4cccc(F)c4)nn23)nc1 | inconclusive: 50.1 µM [inhibitor, partial curve, poor fit]
CCOc1ccc(C(=O)N2CCC[C@H]2c2nc(-c3ccccc3)no2)cc1OCC | inconclusive: 50.1 µM [inhibitor, partial curve, poor fit]
O=C(O)c1ccc(CN2Cc3[nH]cnc3C[C@H]2c2nc(-c3ccc(F)cc3)no2)cc1 | inactive
O=c1cc(-c2ccccn2)oc2c(-c3cccc(CO)c3)nccc12 | inconclusive: 35.5 µM [inhibitor, partial curve, poor fit]
COc1ccc(-c2nn(-c3ccccc3)cc2CN2CCCC(CO)C2)c(F)c1 (stereo not drawn) | inconclusive: 89.1 µM [inhibitor, single point]
O=C(NCc1cccc(Cl)c1)c1nc2cccnc2n(CCc2ccccc2)c1=O | inconclusive: 50.1 µM [inhibitor, partial curve, poor fit]
O=C(Cc1cccc(Cl)c1)N1CCN(c2ccnc3ccnn23)CC1 | inconclusive: 50.1 µM [inhibitor, single point]
Cc1noc(-c2ccc(OC3CN(C(=O)Cc4ccccc4)C3)cc2)n1 | inactive
CC(=O)N(C1CC1)C1CCOC2(CCN(C(=O)c3n[nH]c4ccccc34)CC2)C1 (stereo not drawn) | inactive
CCOc1ccc(C(=O)NC2CCN(c3cnn(CC4CC4)c(=O)c3)CC2)cc1 | inactive
Cc1ccccc1-c1nc(N2CCOCC2)cc2c1CN(Cc1ccccc1)C2=O | active: 25.1 µM
Cc1ccc(-c2noc([C@@H]3Cc4nc[nH]c4CN3C(=O)Nc3ccc(Cl)cc3)n2)cc1 | inconclusive: 100 µM [inhibitor, partial curve, poor fit]
Cc1noc2c(NCCN(C)C)cc(-c3ccc(Cl)cc3)nc12 | active: 25.1 µM
CC(C)(C)CNCC1(O)CCCN(Cc2cccc(F)c2F)C1=O (stereo not drawn) | inactive

Compound | Potency
Cc1ccc(-n2c(=O)c3c(cc(C)n3C)n(CC(=O)Nc3ccccc3F)c2=O)cc1 | inconclusive: 44.7 µM [inhibitor, partial curve, poor fit]
COc1ccc(C(=O)N2CCC3(CC2)NC(=O)N(c2cccc(F)c2)N3)cc1OC | inconclusive: 25.1 µM [inhibitor, partial curve, poor fit]
CC(=O)c1cccc(N2C(=O)[C@@H]3[C@@H](CCN3C(=O)C(C)(C)C)N(Cc3cccc(F)c3)C2=O)c1 | inconclusive: 89.1 µM [inhibitor, single point]
O=C1Cc2c(-c3ccc4c(c3)OCO4)n[nH]c2CN1Cc1ccccn1 | inconclusive: 15.8 µM [inhibitor, full curve]
Cc1ccsc1CN1CCCC(CO)CCNC(=O)CC1 (stereo not drawn) | inconclusive: 79.4 µM [inhibitor, partial curve, poor fit]
COc1ccc(-c2nc(C)nc3c2CCN(C(=O)c2ccccc2OC)CC3)cc1 | inconclusive: 50.1 µM [inhibitor, partial curve, poor fit]
Cc1cccc(CN2CCc3ncc(C(=O)NCc4ccccc4)n3CC2)n1 | active: 89.1 µM
C[S+](=O)([O-])c1ccc(-c2nnc3ccc(C(=O)NCC4CC4)cn23)cc1 | inactive
COc1ccc(-c2[nH]nc3ncc(-c4cccc(F)c4)nc23)c(C)c1 | inconclusive: 79.4 µM [inhibitor, partial curve]
CCOc1ccccc1NC(=O)Cn1c(N2CCOCC2)nc(CC)cc1=O | inactive
CCN1CC(c2ccccc2)CC2(CCN(C(=O)c3ccon3)CC2)C1 (stereo not drawn) | inactive
O=C(C1CCCN(C2CCN(c3ncnc4sccc34)CC2)C1)N1CCCC1 (stereo not drawn) | inconclusive: 31.6 µM [inhibitor, full curve, poor fit]
COc1ccc(CNC(=O)N2CCC(Oc3ccc(-c4noc(C5CC5)n4)cc3)C2)cc1 (stereo not drawn) | inconclusive: 44.7 µM [inhibitor, partial curve, poor fit]
Cc1cc(C(=O)N2CCCC(C(=O)Nc3cccc(-c4cc5ccccc5[nH]4)c3)C2)nn1C (stereo not drawn) | inconclusive: 79.4 µM [inhibitor, partial curve, poor fit]
COc1ccc(F)cc1-c1ccc(CN2CCCCC2C(=O)NCCCc2ccccc2)cc1 (stereo not drawn) | inconclusive: 17.8 µM [inhibitor, full curve, poor fit]
COc1ccc(Cl)cc1NC(=O)CCC1CCCN(C(=O)CCCN2CCCC2=O)C1 (stereo not drawn) | inconclusive: 35.5 µM [inhibitor, partial curve, poor fit]
O=C(NCc1ccc(F)cc1)c1ccc2nnc(C3CCOCC3)n2c1 | inactive
CC(C)C(=O)N1Cc2ccccc2CC2(CCCN(Cc3ccccc3)C2)C1 (stereo not drawn) | inconclusive: 70.8 µM [inhibitor, single point]
Cc1cnc(CC2CCN(C(=O)Nc3ccc4c(c3)OCCO4)C2)n1C1CC1 (stereo not drawn) | inactive
COc1ccccc1-c1cccc(CN2CCC(NC(C)=O)CC2)c1 | inconclusive: 79.4 µM [inhibitor, partial curve, poor fit]
CC(C)CCN1CCC2(C1)C(=NC1CCCC1)NC(=O)N2c1cc(F)cc(F)c1 (stereo not drawn) | inconclusive: 50.1 µM [inhibitor, partial curve, poor fit]

Compound | Potency
Cn1nc(C2CCCC2)cc1NC(=O)C1CCCC1 | inactive
O=C1COc2ccc(-c3ccccc3)nc2CN1CCOc1ccccc1 | active: 44.7 µM
CCC(C)C(=O)N1CCc2[nH]nc(C(=O)NCCCc3ccccc3)c2C1 (stereo not drawn) | inconclusive: 3.55 µM [inhibitor, full curve, poor fit]
CNC(C)c1ccc(Oc2ccccc2)cc1 (stereo not drawn) | active: 79.4 µM
O=C(Cn1cccc1-c1nc(-c2ccc(F)cc2)no1)Nc1ccc(F)cc1 | inconclusive: 39.8 µM [inhibitor, partial curve, poor fit]
CCCC[S+](=O)([O-])N1CCC2(CC1)[C@H](C(=O)OCC)[C@@H](OC)C(=O)N2C | inconclusive: 56.2 µM [inhibitor, partial curve, poor fit]
COc1ccc(OCC2CN(Cc3cccc(F)c3)S(=O)(=O)c3cnccc3O2)cc1 (stereo not drawn) | inconclusive: 28.2 µM [inhibitor, partial curve, poor fit]
COc1ccc2[nH]c3c(c2c1)CCNC31CCN(C(=O)c2ccc(OC)nc2)CC1 | inconclusive: 35.5 µM [inhibitor, full curve, poor fit]
COc1ccc(-c2nc(C3CC3)nc3c2CCN(Cc2cccnc2)CC3)cc1 | inconclusive: 56.2 µM [inhibitor, partial curve, poor fit]
O=C(NC1CC1)[C@@H]1CN(Cc2ccc(Cl)cc2F)C[C@H]1CO | inactive
CC(=O)N1CCc2nn(CC(=O)Nc3ccc(C(F)(F)F)cc3)c(=O)cc2C1 | inconclusive: 70.8 µM [inhibitor, partial curve, poor fit]
COc1ccccc1-c1ccc(CN2CCCCC2C(=O)N2CCN(Cc3ccccc3)CC2)cc1 (stereo not drawn) | inconclusive: 28.2 µM [inhibitor, full curve, poor fit]
COc1ccccc1C(=O)N1CCN(c2cc(C(F)(F)F)ncn2)CC1 | inconclusive: 44.7 µM [inhibitor, partial curve, poor fit]
CCN1c2cc(C(=O)Nc3ccc4c(c3)OCCO4)ccc2C(=O)N2CCCCCC21 (stereo not drawn) | inconclusive: 20 µM [inhibitor, full curve, poor fit]
COCCN1C[C@H]2CN(C)c3ccccc3[C@@H]2N(C(=O)CC2CCCC2)CCC1=O | inconclusive: 31.6 µM [inhibitor, partial curve, poor fit]
CCn1ncc(N2CCCC(CC(=O)Nc3ccc(C)c(C)c3)C2)cc1=O (stereo not drawn) | inconclusive: 50.1 µM [inhibitor, partial curve, poor fit]
COCCC(=O)N1CCC(c2noc(COc3ccc(F)cc3)n2)C1 (stereo not drawn) | inactive
COc1ccc(NC(=O)Cn2ccn3nc(-c4ccccc4)c(CO)c3c2=O)c(OC)c1 | inconclusive: 70.8 µM [inhibitor, single point]
O=C(NCc1cccs1)c1ccc2nnc(-c3ccc(C(F)(F)F)cc3)n2c1 | inconclusive: 44.7 µM [inhibitor, partial curve, poor fit]
CCOC(=O)c1ccc(NC(=O)N2Cc3[nH]cnc3C[C@H]2c2nc(C(C)C)no2)cc1 | active: 100 µM
Cc1ccc(-c2noc(CCCC(=O)N3CCC(CCOc4ccccc4F)C3)n2)cc1 (stereo not drawn) | inconclusive: 39.8 µM [inhibitor, partial curve, poor fit]
